{"source": "PubChem BioAssay AID686978", "about": "(National Center for Advancing Translational Sciences (NCATS), 2013)", "note": "The campaign covered roughly 420,000 compounds. About 64,000 (15%) were called active. This list was built around the results that the source calls inconclusive (neither active nor inactive); the mix of calls is not that of the screen. The call rests on the fitted dose curve; in most records, active means well fitted inhibition curve with a large enough effect; inconclusive means small, poorly fitted or top-dose-only effect; inactive means flat fitted curve, though single readings scatter. Potencies of inconclusive entries are left out as doubtful fits. Potency means the concentration at half of the fitted maximal effect; tags describe the fitted curve by direction and shape.", "data": [{"assay": "qHTS for Inhibitors of human tyrosyl-DNA phosphodiesterase 1 (TDP1): qHTS in cells in absence of CPT; further: nearly all actives have a fitted effect of over 55% in size", "conditions": "DT40 Tdp1-/- hTDP1 cells, no CPT, ATP luminescence, 48 h; series mostly up to 46.2 µM", "summary_of_the_method": "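DT40 Tdp1-/-;hTDP1 cells, no CPT (DMSO vehicle only), 400 cells/well; compounds pin-transferred; ≥48 hr, 37 °C; CellTiter-Glo 30 min RT dark, luminescence read.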", "values": [{"smiles": "COc1ccccc1C1=NC(c2ccc(F)cc2)N=C1C", "note": "(centres undefined)", "Potency": "inconclusive [inhibitor, single point]"}, {"smiles": "Cc1ccc(NC(=O)CSc2nc3c(c(=O)[nH]2)CN(Cc2ccc(F)cc2)CC3)cc1C", "Potency": "inconclusive [inhibitor, partial curve, poor fit]"}, {"smiles": "CC1(C)C[C@H](O)[C@]2(CO)[C@H](O)C[C@]3(C)C(=CCC4[C@@]5(C)CC[C@H](O)C(C)(C)C5CC[C@]43C)[C@@H]2C1", "note": "(some centres undefined)", "Potency": "active: 23.1 µM"}, {"smiles": "O=C(/C=C/c1ccccc1)NC(=S)Nc1ccc2c3c(cccc13)CC2", "Potency": "inconclusive [inhibitor, single point]"}, {"smiles": "Cc1cc(C)c2nc(N3CCC(C(=O)NCCCN4CCCCC4)CC3)sc2c1", "Potency": "inconclusive [inhibitor, single point]"}, {"smiles": "CC(C)(C)[C@@H]1COC(=O)[C@H](Cc2ccc(F)cc2)CC/C=C\\C[C@H](CC(=O)N(CCO)Cc2ccccc2)C(=O)N1", "Potency": "active: 9.2 µM"}, {"smiles": "CC(C)(C)C1CCc2c(sc(NC(=O)c3cccs3)c2C(=O)N2CCCCC2)C1", "note": "(centres undefined)", "Potency": "inconclusive [inhibitor, single point]"}, {"smiles": "Cc1ccc(C)c(CNC(=O)c2ccc3c(c2)nc2n3CCC(C)C2)c1", "note": "(centres undefined)", "Potency": "active: 20.6 µM"}, {"smiles": "CN(C)CCCC1(c2ccc(F)cc2)OCc2cc(C#N)ccc21", "note": "(centres undefined)", "Potency": "inconclusive [inhibitor, single point]"}, {"smiles": "O=C(Nc1nc2ccc(S(=O)(=O)N3CCOCC3)cc2s1)c1cccs1", "Potency": "inactive"}, {"smiles": "CC(NC(=O)Cn1cc(Br)c([N+](=O)[O-])n1)c1ccccc1", "note": "(centres undefined)", "Potency": "inconclusive [inhibitor, partial curve]"}, {"smiles": "CC(=O)c1ccc(NC(=O)CSc2nc(Nc3ccccc3)nc(N3CCOCC3)n2)cc1", "Potency": "inconclusive [inhibitor, single point]"}, {"smiles": "CC1=CC2=NC(=O)/C(=C\\c3cccn3CCOc3ccc(C)c(C)c3)C(=N)N2O1", "Potency": "inconclusive [inhibitor, single point]"}, {"smiles": "CCOc1ccc(C(=O)NC(=S)Nc2ccc(N3CCCCC3)cc2)cc1[N+](=O)[O-]", "Potency": "inconclusive [inhibitor, single point]"}, {"smiles": "CCN(CC)C(=O)Cn1cnc2sc(C(=O)N3CCN(c4ccc(F)cc4)CC3)c(C)c2c1=O", "Potency": "inactive"}, {"smiles": "COC(=O)c1cnc(SCc2ccc([N+](=O)[O-])cc2)n1C", "Potency": "inactive"}, {"smiles": "C/C(O)=C(/C=NCC(=O)O)C(=O)Nc1nccs1", "Potency": "inactive"}, {"smiles": "COc1ccc(CC(=O)N2CCN(c3ccccc3OC)CC2)cc1", "Potency": "inactive"}, {"smiles": "CN1CCN(c2ncc3nc(-c4ccc(Cl)cc4)c(=O)n(C4CC4)c3n2)CC1", "Potency": "inconclusive [inhibitor, single point]"}]}]}
